Results on 11 molecules are retold here after patent US20230331822A1 (published 2023).

Assay [1] has as its target T1, HCoV-NL63 Spike protein, full length, C-terminally fused with EGFP (HCoV-NL63, UniProt Q6Q1S2 19-1356).
T1 construct: whole, on cells
T1 sequence: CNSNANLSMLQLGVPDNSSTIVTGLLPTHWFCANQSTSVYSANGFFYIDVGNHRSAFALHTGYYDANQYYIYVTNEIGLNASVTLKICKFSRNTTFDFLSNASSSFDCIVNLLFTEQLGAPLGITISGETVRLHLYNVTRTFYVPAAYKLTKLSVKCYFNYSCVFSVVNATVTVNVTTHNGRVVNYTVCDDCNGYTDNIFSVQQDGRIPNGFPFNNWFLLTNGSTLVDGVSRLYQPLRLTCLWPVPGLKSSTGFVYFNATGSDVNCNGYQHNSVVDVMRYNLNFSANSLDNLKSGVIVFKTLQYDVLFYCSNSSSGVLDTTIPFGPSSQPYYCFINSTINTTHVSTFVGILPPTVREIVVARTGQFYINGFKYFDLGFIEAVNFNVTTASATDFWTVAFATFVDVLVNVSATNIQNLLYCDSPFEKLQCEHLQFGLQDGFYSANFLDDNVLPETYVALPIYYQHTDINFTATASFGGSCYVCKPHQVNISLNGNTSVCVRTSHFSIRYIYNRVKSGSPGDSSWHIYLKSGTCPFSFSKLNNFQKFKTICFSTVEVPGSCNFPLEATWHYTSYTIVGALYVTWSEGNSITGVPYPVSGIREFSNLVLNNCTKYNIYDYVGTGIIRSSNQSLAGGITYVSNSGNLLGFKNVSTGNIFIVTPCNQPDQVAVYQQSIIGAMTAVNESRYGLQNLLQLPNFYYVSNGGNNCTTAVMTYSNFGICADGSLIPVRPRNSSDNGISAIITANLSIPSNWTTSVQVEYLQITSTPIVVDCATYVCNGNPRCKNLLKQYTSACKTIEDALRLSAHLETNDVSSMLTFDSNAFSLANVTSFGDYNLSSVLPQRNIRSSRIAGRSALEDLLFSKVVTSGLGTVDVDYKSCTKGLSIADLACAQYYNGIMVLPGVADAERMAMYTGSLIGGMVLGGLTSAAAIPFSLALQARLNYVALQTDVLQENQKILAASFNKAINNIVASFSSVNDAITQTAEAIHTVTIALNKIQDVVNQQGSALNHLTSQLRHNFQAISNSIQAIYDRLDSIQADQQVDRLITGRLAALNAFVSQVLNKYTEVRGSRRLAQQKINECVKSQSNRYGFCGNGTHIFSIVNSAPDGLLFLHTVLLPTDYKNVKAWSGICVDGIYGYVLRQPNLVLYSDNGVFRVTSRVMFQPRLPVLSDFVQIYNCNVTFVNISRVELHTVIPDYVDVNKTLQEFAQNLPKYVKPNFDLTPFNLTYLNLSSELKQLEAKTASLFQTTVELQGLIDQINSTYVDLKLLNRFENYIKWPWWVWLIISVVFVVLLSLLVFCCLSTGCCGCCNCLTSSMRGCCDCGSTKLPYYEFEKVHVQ
The assay is described as follows: flow cytometry, HEK293 cells expressing full-length Spike-EGFP, anti-hIg-PE. (Flow cytometry measures light scatter and fluorescence of single cells or particles in a stream.)

The target of assay [2] is T2, HCoV-HKU1 Spike protein, full length, C-terminally fused with EGFP (HCoV-HKU1, UniProt Q5MQD0 13-1356).
T2 construct: whole, on cells
T2 sequence: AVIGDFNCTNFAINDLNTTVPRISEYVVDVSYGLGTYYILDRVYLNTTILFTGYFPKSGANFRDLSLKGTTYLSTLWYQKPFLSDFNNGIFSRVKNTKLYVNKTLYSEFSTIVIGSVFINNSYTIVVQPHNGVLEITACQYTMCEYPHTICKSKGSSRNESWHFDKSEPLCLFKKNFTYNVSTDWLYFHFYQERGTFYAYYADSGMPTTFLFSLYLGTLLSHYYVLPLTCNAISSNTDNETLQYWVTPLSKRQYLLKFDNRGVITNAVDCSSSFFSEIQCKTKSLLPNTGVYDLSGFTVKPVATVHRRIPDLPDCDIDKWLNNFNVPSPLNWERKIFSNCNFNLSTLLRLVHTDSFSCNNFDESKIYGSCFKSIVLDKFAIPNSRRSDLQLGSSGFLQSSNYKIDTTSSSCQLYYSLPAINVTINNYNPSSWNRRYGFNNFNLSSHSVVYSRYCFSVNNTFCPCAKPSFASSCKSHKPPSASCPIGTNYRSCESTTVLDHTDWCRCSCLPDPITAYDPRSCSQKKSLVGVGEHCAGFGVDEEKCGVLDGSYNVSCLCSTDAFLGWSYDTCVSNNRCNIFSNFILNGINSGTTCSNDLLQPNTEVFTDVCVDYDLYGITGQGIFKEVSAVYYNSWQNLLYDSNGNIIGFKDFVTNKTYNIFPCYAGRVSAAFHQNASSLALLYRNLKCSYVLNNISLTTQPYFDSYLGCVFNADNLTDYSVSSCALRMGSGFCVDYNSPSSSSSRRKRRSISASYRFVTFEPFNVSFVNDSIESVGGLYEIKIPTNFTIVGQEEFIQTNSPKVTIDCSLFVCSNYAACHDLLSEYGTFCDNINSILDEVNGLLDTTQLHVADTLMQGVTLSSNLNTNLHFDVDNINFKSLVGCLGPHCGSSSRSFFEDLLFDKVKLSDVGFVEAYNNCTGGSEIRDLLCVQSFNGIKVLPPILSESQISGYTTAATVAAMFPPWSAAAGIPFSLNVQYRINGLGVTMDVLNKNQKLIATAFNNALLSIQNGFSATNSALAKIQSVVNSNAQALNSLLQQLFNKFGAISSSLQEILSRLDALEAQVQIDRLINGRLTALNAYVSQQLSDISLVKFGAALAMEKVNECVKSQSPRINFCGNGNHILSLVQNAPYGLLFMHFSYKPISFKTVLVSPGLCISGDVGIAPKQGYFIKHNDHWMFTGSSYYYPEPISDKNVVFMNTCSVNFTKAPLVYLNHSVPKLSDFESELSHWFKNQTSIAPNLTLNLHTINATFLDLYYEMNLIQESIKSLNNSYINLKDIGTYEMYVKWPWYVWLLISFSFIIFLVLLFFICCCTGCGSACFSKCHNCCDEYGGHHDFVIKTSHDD
Described as above.

B1: COV2-353-14-Fc (Fc fusion)
chain: QLQLVESGGDLVQPGESLRLSCVASGFRLGGYAIGWFRQAPGKEREGVSCISGSGIISSYADSVRGRFTISRENAKNAVYLEMNSLKPEDTAVYYCAAPSGSSYGSRRLPCGIDSQDYQTWGQGTQVTVSS[human IgG1 Fc with changes not listed]
For B1, the binding result in assay [1] and in assay [2] was “no binding” throughout.

B2: COV2-237-13-Fc (Fc fusion)
chain: QLQLVESGGDLVQPGESLRLSCVASFKSYHIAWIGWFRQAPGKEREGVSCSLTGASITSYADSVRGRFTISRENAKNAVYLEMNSLKPEDTAVYYCAARDYASSLYCSRNEAMYAYWGQGTQVTVSS[human IgG1 Fc with changes not listed]
For B2, the binding result in assay [1] and in assay [2] was “no binding” throughout.

B3: COV2-143-4-Fc (Fc fusion)
chain: QLQLVESGGDLVQPGESLRLSCVASGLTLNNNTIGWFRQAPGKEREGVSCISPSGIVTSYADSVRGRFTISRENAKNAVYLEMNSLKPEDTAVYYCAVLQWNGAGLPSPLGSWGQGTQVTVSS[human IgG1 Fc with changes not listed]
In the case of B3, the binding result in assay [1] and in assay [2] was “no binding” throughout.

B4: COV2-115-7-Fc (Fc fusion)
chain: QLQLVESGGDLVQPGESLRLSCVASGFSLDGYAIGWFRQAPGKEREGVSCIGRLGTTTSYADSVRGRFTISRENAKNAVYLEMNSLKPEDTAVYYCAAKRSTWFGCSTLDDYDYWGQGTQVTVSS[human IgG1 Fc with changes not listed]
Turning to B4, the binding result in assay [1] and in assay [2] was “no binding” each time.

B5: COV2-13-5-Fc (Fc fusion)
chain: QLQLVESGGDLVQPGESLRLSCVASGFTLGNYEIGWFRQAPGKEREGVSCISRSGVIFSYADSVRGRFTISRENAKNAVYLEMNSLKPEDTAVYYCAARFRAGLVQSLCQSTPEFYQDWGQGTQVTVSS[human IgG1 Fc with changes not listed]
Regarding B5, the binding result in assay [1] and in assay [2] was “no binding” in each case.

B6: COV2-22-8-Fc (Fc fusion)
chain: QLQLVESGGDLVQPGESLRLSCVASGFTLDRYAIGWFRQAPGKEREGVSCISSGGTTSYADSVRGRFTISRENAKNAVYLEMNSLKPEDTAVYYCAAGTQLRYGCSRQARRYDYWGQGTQVTVSS[human IgG1 Fc with changes not listed]
Consider B6, for which the binding result in assay [1] and in assay [2] was “no binding” each time.

B7: COV2-324-16-Fc (Fc fusion)
chain: QLQLVESGGDLVQPGESLRLSCVASGFTFDDYSIGWFRQAPGKEREGVSCFSSLDGSTSYADSVRGRFTISRENAKNAVYLEMNSLKPEDTAVYYCAATRGSSWYWYRPSEYDYWGQGTQVTVSS[human IgG1 Fc with changes not listed]
B7: the binding result in assay [1] and in assay [2] was “no binding” throughout.

B8: COV2-122-10-Fc (Fc fusion)
chain: QLQLVESGGDLVQPGESLRLSCVASGATSDIYAIGWFRQAPGKEREGVSCISPSGGSTSYADSVRGRFTISRENAKNAVYLEMNSLKPEDTAVYYCAAASPSWHYCSGYEHEYDDWGQGTQVTVSS[human IgG1 Fc with changes not listed]
As for B8, the binding result in assay [1] and in assay [2] was “no binding” throughout.

B9: COV2-121-15-Fc (Fc fusion)
chain: QLQLVESGGDLVQPGESLRLSCVASFDDFAIGWIGWFRQAPGKEREGVSCSARGIVNTSYADSVRGRFTISRENAKNAVYLEMNSLKPEDTAVYYCAALVGLNDRSLPHEAEEYDYWGQGTQVTVSS[human IgG1 Fc with changes not listed]
On to B9, for which the binding result in assay [1] and in assay [2] was “no binding” in each case.

B10: COV2-356-6-Fc (Fc fusion)
chain: QLQLVESGGDLVQPGESLRLSCVASGFTLGNYAIGWFRQAPGKEREGVSCISLSGDIISYADSVRGRFTISRENAKNAVYLEMNSLKPEDTAVYYCAAPFPSLLYCSLCPSNPEFCRHWGQGTQVTVSS[human IgG1 Fc with changes not listed]
In the case of B10, the binding result in assay [1] and in assay [2] was “no binding” in each case.

B11: COV2-136-12-Fc (Fc fusion)
chain: QLQLVESGGDLVQPGESLRLSCVASGFTFHYYAIGWFRQAPGKEREGVSCISSGGGRTSYADSVRGRFTISRENAKNAVYLEMNSLKPEDTAVYYCAALQGSLHYCSGLVGEYEYWGQGTQVTVSS[human IgG1 Fc with changes not listed]
Take B11: the binding result in assay [1] and in assay [2] was “no binding” in each case.
